Results as given in PubChem BioAssay AID588382 (National Center for Advancing Translational Sciences (NCATS), 2011).
Among all 1,300 compounds or so, about 150 (12%) were called active. Another 30% or so got no clear call; they are omitted. Calls follow the shape of the dose curve; as a rule, active = well fitted cell-killing curve with a large enough effect; inconclusive = small, poorly fitted or top-dose-only effect, or effect the other way; inactive = flat fitted curve, though single readings scatter. The entries are a selection whose mix differs from that of the whole data set.

experiment: qHTS of small molecules that selectively kill Giardia lamblia: Hit Validation in HepG2 cytotox; conditions: cell viability; Potency: HepG2 cytotoxicity; series mostly up to 38.3 µM; activity change, negative = cytotoxicity: at the top concentration;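 also: compound exposure lasted overnight at 37 deg C; nearly all actives have a fitted effect of over 55% in size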;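 as to activity change, negative = cytotoxicity: viability measured as cellular ATP by ATPLite luminescence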
In short: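 Counterscreen cytotoxicity: ATPLite luminescence (15 min, room temperature) measured in HepG2 cells exposed overnight at 37 deg C to pin-transferred compound (23 nL) after overnight pre-incubation.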
% is scaled to controls: 0 for no effect and ±100 for the full control effect; potency is read from the fitted curve at half-maximal effect.

Question: With `COc1ccc(CCNC(=O)C23CCC(C)(C(=O)C2=O)C3(C)C)cc1OC` (stereo not drawn) as the compound, how does the “activity change, negative = cytotoxicity” value read?
Answer: The value was inactive: 7.19%.

Question: For `COc1cc2c(cc1OC)-c1c(OC)c(OC)cc3ccnc(c13)C2=O`, which “activity change, negative = cytotoxicity” value is on record?
Answer: Its value is inactive: -4.96%.

Question: With `CN(CCc1ccccc1)C(=O)c1cccc(NC(=O)Cc2cccc(NC(=O)C3CCN(C(=O)C4CCCC4)CC3)c2)c1` as the compound, how does the “activity change, negative = cytotoxicity” value read?
Answer: The value was inactive: 12.8%.

Question: For `CN(C(=O)c1cc([N+](=O)[O-])ccc1NCc1cccnc1)c1ccccc1`, which “activity change, negative = cytotoxicity” value is on record?
Answer: Its value is inactive: 14.7%.

Question: With `O=C(Nc1ccc2oc(-c3cccnc3)nc2c1)c1ccc([N+](=O)[O-])o1` as the compound, how does the Potency read?
Answer: Its Potency is active: 13.1 µM.

Question: With `O=c1cc(-c2ccccc2)[nH]c2cc(Cl)ccc12` as the compound, how does the “activity change, negative = cytotoxicity” value read?
Answer: Its value is inactive: 12.5%.

Question: Which “activity change, negative = cytotoxicity” value does the source give for `Cc1cnc([N+](=O)[O-])n1CCOC(=O)NC(=O)c1ccc(C(F)(F)F)cc1` here?
Answer: Its value is inactive: 16.2%.

Question: Which Potency does the source give for `COc1ccc(S(=O)(=O)N2CCCCC2)cc1NC(=O)c1ccc([N+](=O)[O-])o1` here?
Answer: The Potency was active: 3.29 µM.

Question: Which “activity change, negative = cytotoxicity” value does the source give for `CCC1=C(OC(=O)N(CC)CC)N2C(=O)OC(=NCC(=O)OC)[C@]2(C)[C@H]2C1=CC[C@H]1C(=O)N(CC)C(=O)[C@H]12` here?
Answer: Its value is inactive: -4.65%.

Question: For `O=C(Nc1ccc(N2CCN(C(=O)c3ccc(Cl)cc3)CC2)cc1)c1ccc([N+](=O)[O-])o1`, which Potency is on record?
Answer: The Potency was active: 3.29 µM.

Question: For `NC(=O)c1c(NC(=O)c2ccc([N+](=O)[O-])o2)sc2c1CCCC2`, which Potency is on record?
Answer: The Potency was active: 11.7 µM.

Question: Which Potency does the source give for `COc1cc(NC(=O)c2ccc([N+](=O)[O-])o2)ccc1NC(=O)c1cccs1` here?
Answer: Its Potency is active: 14.7 µM.

Question: For `O=C(NCC(c1ccco1)N1CCCC1)c1ccc(S(=O)(=O)Nc2ccccc2Cl)cc1` (stereo not drawn), which “activity change, negative = cytotoxicity” value is on record?
Answer: Its value is inactive: -0.386%.

Question: Which “activity change, negative = cytotoxicity” value does the source give for `Cc1cccc(C)c1OCC(=O)N(Cc1cccs1)C1CCS(=O)(=O)C1` (stereo not drawn) here?
Answer: Its value is inactive: 3.77%.

Question: Which “activity change, negative = cytotoxicity” value does the source give for `CCn1c(=O)n(CC)c2cc(N)ccc21` here?
Answer: Its value is inactive: 16.5%.

Question: Which “activity change, negative = cytotoxicity” value does the source give for `O=C(NCC1CCN(Cc2ccc(F)cc2)CC1)Nc1cc(F)ccc1F` here?
Answer: The value was inactive: 0.846%.

Question: Which “activity change, negative = cytotoxicity” value does the source give for `COc1ccc(C(=O)C(C)OC(=O)CNC(=O)C2CCCCC2)cc1` (stereo not drawn) here?
Answer: Its value is inactive: 22.2%.

Question: For `CCOP(=O)(OCC)c1cccc(P(=O)(c2ccccc2)c2ccccc2)c1O`, which “activity change, negative = cytotoxicity” value is on record?
Answer: Its value is inactive: 18.3%.

Question: With `Cc1cc(N/N=C/c2ccc([N+](=O)[O-])o2)nc2ccccc12` as the compound, how does the “activity change, negative = cytotoxicity” value read?
Answer: The value was inactive: -6.07%.

Question: With `COc1cc(/C=C2\SC(=O)N(Cc3ccc(F)cc3)C2=O)cc([N+](=O)[O-])c1O` as the compound, how does the “activity change, negative = cytotoxicity” value read?
Answer: The value was inactive: -2.93%.

Question: Which “activity change, negative = cytotoxicity” value does the source give for `Cc1cc(C(=O)COc2cccnc2[N+](=O)[O-])c(C)n1-c1ccccc1` here?
Answer: The value was inactive: 5.87%.

Question: With `Cc1cccc(N2CCN(C(=S)Nc3ccc4nc(N5CCN(C)CC5)cc(C)c4c3)CC2)c1C` as the compound, how does the Potency read?
Answer: The Potency was active: 4.65 µM.

Question: Which Potency does the source give for `O=C(NCc1ccccn1)C1CCCN(S(=O)(=O)c2cc(Cl)ccc2Cl)C1` (stereo not drawn) here?
Answer: The Potency was active: 3.69 µM.

Question: Which “activity change, negative = cytotoxicity” value does the source give for `COc1ccc(-n2nc([N+](=O)[O-])c(=NCCc3ccc(OC)c(OC)c3)n2O)cc1` here?
Answer: Its value is inactive: 19.2%.

Question: Which Potency does the source give for `O=C(Nc1cccc(S(=O)(=O)N2CCCCC2)c1)c1ccc([N+](=O)[O-])o1` here?
Answer: Its Potency is active: 11.7 µM.

Question: With `C/C(=N\NC(=O)COc1ccc(C)cc1Br)c1cc([N+](=O)[O-])cs1` as the compound, how does the “activity change, negative = cytotoxicity” value read?
Answer: The value was inactive: 1.76%.

Question: For `CCOc1ccccc1NS(=O)(=O)c1c[nH]c(C(=O)OC)c1`, which “activity change, negative = cytotoxicity” value is on record?
Answer: The value was inactive: 13.9%.

Question: With `CCN1C[C@@H]2[C@@H]3C(=O)N(C)C(=O)[C@@H]3[C@](C)(C1=O)N2C(=O)c1ccc(Cl)c(Cl)c1` as the compound, how does the “activity change, negative = cytotoxicity” value read?
Answer: The value was inactive: 1.87%.

Question: Which “activity change, negative = cytotoxicity” value does the source give for `O=C(NNC(=O)c1ccncc1)Nc1cccc([N+](=O)[O-])c1` here?
Answer: Its value is inactive: -0.887%.

Question: Which “activity change, negative = cytotoxicity” value does the source give for `Cc1ccc(CNC(=O)CSc2ccsc2[N+](=O)[O-])cc1` here?
Answer: Its value is inactive: 11.7%.

Question: For `O=[N+]([O-])c1nn(-c2ccccc2)[n+]([O-])c1N1CCN(c2ccccc2F)CC1`, which “activity change, negative = cytotoxicity” value is on record?
Answer: The value was inactive: 8.55%.

Question: Which Potency does the source give for `CCC(C)Nc1ccc(NC(C)CC)cc1` (stereo not drawn) here?
Answer: Its Potency is active: 0.165 µM.

Question: With `COCCn1c(C)cc(/C=C2\NC(=S)N(C)C2=O)c1C` as the compound, how does the “activity change, negative = cytotoxicity” value read?
Answer: Its value is inactive: -6.14%.

Question: With `CCOCCOc1nc2c(c(=O)n(C)c(=O)n2C)n1Cc1ccc(C)cc1` as the compound, how does the “activity change, negative = cytotoxicity” value read?
Answer: The value was inactive: 7.93%.

Question: For `COc1ccc(CCNC(=O)CSc2ccsc2[N+](=O)[O-])cc1OC`, which “activity change, negative = cytotoxicity” value is on record?
Answer: The value was inactive: -5.55%.

Question: With `CC1CS(=O)(=O)CCN1N=Cc1ccc([N+](=O)[O-])o1` (stereo not drawn) as the compound, how does the “activity change, negative = cytotoxicity” value read?
Answer: Its value is inactive: 18%.

Question: Which “activity change, negative = cytotoxicity” value does the source give for `O=C(Nc1csc([N+](=O)[O-])c1)Nc1ccccc1Cl` here?
Answer: Its value is inactive: -14.3%.

Question: For `O=C(COc1cccnc1[N+](=O)[O-])Nc1cccc2ccccc12`, which “activity change, negative = cytotoxicity” value is on record?
Answer: The value was inactive: -9.25%.

Question: With `COc1cc(/C=C(\NC(=O)c2ccccc2)C(=O)NCCO)c([N+](=O)[O-])cc1OC` as the compound, how does the “activity change, negative = cytotoxicity” value read?
Answer: Its value is inactive: 23.4%.

Question: With `CCc1ccccc1NC(=O)CC(NCc1ccccc1)C(=O)O` (stereo not drawn) as the compound, how does the “activity change, negative = cytotoxicity” value read?
Answer: The value was inactive: 0.896%.

Question: For `NC(=S)N/N=C1\c2ccccc2-c2c(C(=O)O)cccc21`, which “activity change, negative = cytotoxicity” value is on record?
Answer: The value was inactive: 7.38%.

Question: For `O=C(CSc1ccsc1[N+](=O)[O-])NCCc1ccc(Cl)cc1`, which “activity change, negative = cytotoxicity” value is on record?
Answer: The value was inactive: 19.5%.

Question: Which “activity change, negative = cytotoxicity” value does the source give for `CC(=O)Nc1ccc(S(=O)(=O)N(CCc2ccccc2)CC(=O)N/N=C/c2ccc(C(=O)O)cc2)cc1` here?
Answer: Its value is inactive: 18.8%.

Question: With `COc1cccc(NC2c3ccccc3C(=O)N2Cc2ccco2)c1` (stereo not drawn) as the compound, how does the “activity change, negative = cytotoxicity” value read?
Answer: The value was inactive: 8.15%.

Question: For `O=C(c1cc(COc2c(F)cccc2F)on1)N1CCc2ccccc2C1`, which “activity change, negative = cytotoxicity” value is on record?
Answer: Its value is inactive: 2.36%.

Question: With `CC/C=C1/N=C2C(=O)N(C)C(=O)N=C2N(C)N1` as the compound, how does the Potency read?
Answer: Its Potency is active: 3.29 µM.

Question: With `C[C@H](CO)N1C[C@H](C)[C@H](CN(C)C(=O)Nc2ccc(C(F)(F)F)cc2)Oc2c(NC(=O)c3ccncc3)cccc2C1=O` as the compound, how does the “activity change, negative = cytotoxicity” value read?
Answer: Its value is inactive: -27.4%.

Question: Which “activity change, negative = cytotoxicity” value does the source give for `Cc1ncc([N+](=O)[O-])n1CCOC(=O)c1ccccc1` here?
Answer: Its value is inactive: 12.9%.
